Where “and” joins values, the source holds several entries; their conditions need not be identical. Identical values can stand only once.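 Interpolation was linear, between the two tested concentrations surrounding the appropriate level; five concentrations were tested over 48 hours in 96-well plates. GI50: concentration for 50% inhibition of growth. TGI marks complete inhibition of growth.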
Tested on: NCI-H322M lung
Assay: growth of human tumour cells (NCI), 48 h

`COc1ccc([C@@]23CCC(=O)C[C@@H]2N(C)CC3)cc1OC` gave a TGI greater than 100 µM.

Work on `C=C(CCC(C(=O)O)C1CCC2(C)C3=C(CCC12C)C1(C)CCC(O)C(C)(C)C1CC3)C(C)C` (stereo unspecified) yielded a TGI greater than 100 µM.

In the case of `CCCCCCN(CCCCCC)CC(O)c1cccc2ccc(Cl)cc12` (stereo unspecified), the GI50 is reported as 10.7 µM and the TGI is reported as 24.6 µM.

With `O=c1[nH]c(-c2ccccn2)nc2sc3c(c12)CCCCCC3` the GI50 was 84.6 µM and the TGI was greater than 100 µM.

Work on `COC(=O)C1CCC(=NC2c3ccccc3-c3ccccc32)N1` (stereo unspecified) yielded a TGI greater than 100 µM.

Molecule `Cn1c(=O)c2[nH]c(N/N=C3/SCC(=O)N3Cc3ccccc3)nc2n(C)c1=O` has a TGI greater than 100 µM.

In the case of `CN1C/C(=C\c2ccccc2[N+](=O)[O-])C(=O)/C(=C/c2ccccc2[N+](=O)[O-])C1`, the TGI is reported as 5 µM and 11.8 µM.

For `Cc1ccc(Nc2nnc3n2S(=O)(=O)c2cc(C)c(Cl)cc2S3)cc1`, the TGI was greater than 100 µM.

Work on `CC(=O)Oc1ccc2c(c1)c1c(OC(C)=O)c3ccccc3c(OC(C)=O)c1n2Cc1cccc(C)c1` yielded a TGI greater than 100 µM.

Molecule `COC(=O)C1=C(O)C(C(=O)OC)[C@@]2(O)[C@@H](C(=O)OC)C(c3ccc(OC(=O)C(CC(C)C)NC(C)=O)cc3)C[C@@H]1[C@@H]2C(=O)OC` (stereo partly specified) has a GI50 of 27.8 µM and a TGI of 96.2 µM.

In the case of `CC1=CC(c2ccccc2)n2c(nc3cc4ccccc4cc32)N1` (stereo unspecified), the TGI is reported as greater than 100 µM.

With `COc1ccc(CC2C(=O)NC(C)C(=O)N(C)C3Cc4ccc(cc4)Oc4cc(ccc4O)CC(C(=O)NC(C)C(=O)NC(C)C(=O)N2C)N(C)C3=O)cc1` (stereo unspecified) the GI50 was less than 0.0001 µM and the TGI was 0.0411 µM and 0.0273 µM.

For `CC(C)n1nc(C#Cc2cccc(NC(=O)c3cccc(C(F)(F)F)c3)c2)c2c(N)ncnc21`, the GI50 was 2.43 µM and the TGI was 7.27 µM.

`C[C@H](NC(=O)CCC(F)(F)F)C(=O)N[C@@H]1C(=O)N(CCO)c2ncccc2-c2ccccc21` was tested, and the GI50 was greater than 100 µM and the TGI was greater than 100 µM.

`CC(=O)c1c(O)c(C)c(O)c2c1OC1=CC(=O)C(C(C)=O)C(=O)C12C` (stereo unspecified) was tested, and the GI50 was 5.75 µM and 20 µM and the TGI was 26.8 µM and 80 µM.

Molecule `Cc1c(-c2coc(-c3ccc(Cl)cc3)n2)c(=O)n(-c2ccccc2)n1C` has a TGI greater than 100 µM.

In the case of `COc1ccc(NC(=O)C2=C(SC)C(=O)N=C2N)cc1`, the TGI is reported as greater than 100 µM.

For `O=C(Nc1ccccc1)Nc1ccccc1CNc1nc(Nc2ccc(OCCN3CCCC3)cc2)ncc1Cl`, the GI50 was 6.14 µM and the TGI was 12.4 µM.

Work on `CC(C)C[C@H](NC(=O)[C@@H](O)[C@H](N)Cc1ccccc1)C(=O)O` yielded a GI50 greater than 100 µM and a TGI greater than 100 µM.

Molecule `CCOc1ccc(NC(=S)/N=C/C(C(=O)Nc2ccccc2C)=C(\C)O)cc1` has a TGI greater than 100 µM.

With `COc1ccc(-c2c(C(C)=O)c(C)n(C3OC(CO)C(O)C(O)C3O)c(=S)c2C#N)cc1` (stereo unspecified) the TGI was greater than 100 µM.

For `CCC1(N2C(=O)c3c(F)c(F)c(F)c(F)c3C2=O)C(=O)NC(=O)N(c2ccccc2)C1=O` (stereo unspecified), the GI50 was 23.5 µM and the TGI was 43 µM.

For `COc1cccc(N2N=C3c4ccccc4-n4c(nc5ccccc54)C3C2N)c1` (stereo unspecified), the TGI was greater than 100 µM.

For `CCCCCCN1C(=O)CN=C1Nc1ccc2cc3ccc(NC4=NCC(=O)N4CCCCCC)cc3nc2c1`, the GI50 was 3.87 µM and the TGI was 17.9 µM.

`Cc1cnc2[nH]c(-c3ccccc3)cc(=O)c2c1` gave a TGI greater than 100 µM.

With `COc1cc(O)c2c(c1)C(O)C(O)CC1OC1C(=O)/C=C/CC(C)OC2=O` (stereo unspecified) the TGI was 45.5 µM.

`COC(=O)C1(Cc2ccccc2)Cc2ccccc2C1=O` (stereo unspecified) showed a TGI greater than 100 µM.

With `O=C1CC2Sc3ccccc3N=C2N1c1ccc(Cl)cc1Cl` (stereo unspecified) the TGI was greater than 100 µM.

For `CCOC(=O)C1=C(c2ccccc2)N(Cc2ccccc2)C2(O)C=CC(=O)C3C(=O)N(c4ccccc4)C(=O)C132` (stereo unspecified), the GI50 was 1.89 µM and the TGI was 3.58 µM.

`COc1cc(C(=O)/C=C/c2c(C(F)(F)F)nc3sccn23)cc(OC)c1OC` gave a GI50 of 1.96 µM and a TGI of 5.54 µM.

`COC1(OC)N=C(N)C2(C#N)/C(=N/N(C)C)CC(C)C12C#N` (stereo unspecified) gave a TGI greater than 100 µM.

`Cc1cc2c(cc1Cl)SC1=NN(C)C(c3ccccc3O)N1S2(=O)=O` (stereo unspecified) was tested, and the GI50 was 62.8 µM and the TGI was greater than 100 µM.

In the case of `CC[C@@]1(O)C(=O)OCc2c1cc1n(c2=O)Cc2cc3c(NC(C)=O)c(O)ccc3nc2-1`, the GI50 is reported as 8.59 µM and the TGI is reported as 61 µM.

In the case of `C#Cc1ccc(-n2c(/C=C/c3cc(OC)c(OC)c(OC)c3)nc3ncccc3c2=O)cc1`, the GI50 is reported as 14.1 µM and the TGI is reported as greater than 100 µM.

With `COc1ccccc1OC/C(N=Cc1ccncc1)=N/NC(=O)c1ccncc1` the TGI was greater than 100 µM.
